Test results reported in the RNAGym collection of RNA variant scans (doi:10.7554/elife.90254).
The source gives no read counts; variants with many changes may rest on few reads.

B1: LINE1-mini (parent)
chain: GGCAGAGCUCAACACAGCGUGGCAAAGUGGCUGUGGCUAGACUGCC

Variants of: B1
Test: self-cleavage, relative activity (ratio to wild type); higher = more cleavage; in vitro, sequencing; the parent is a self-cleaving ribozyme
Variant A6C G44A C46U has a self-cleavage of 0.04. For A6C G29U C37A C42U, the self-cleavage was 0.03. Variant A6G C10U G17U A26U has a self-cleavage of 0.02. A6C G19A G21U C31U C37G showed a self-cleavage of 0.01. Work on A6G C13G C37U yielded a self-cleavage of 0.14. A6C U9A U20C A25U G33U gave a self-cleavage of 0.1. In the case of A6G A16U C18G G33C A41G, the self-cleavage is reported as 0.01. A6G C8U A16C U38A gave a self-cleavage of 0. A6G A16G U38A showed a self-cleavage of 0.03. Work on A6C C18U C23U yielded a self-cleavage of 2.05. With A6G C18A C37G the self-cleavage was 0.01. In the case of A6C G27U G35A, the self-cleavage is reported as 0.02. With A6G C8A C10A the self-cleavage was 0.01. A6C U9C C18U gave a self-cleavage of 0.03. A6C C18A C23U U28G G30U gave a self-cleavage of 0.19. A6G A14C G17C U34G G35C A41U gave a self-cleavage of 0.05. A6G A26C U38G gave a self-cleavage of 0.01. A6G C13G G17U gave a self-cleavage of 0.03. A6C G17C A39C gave a self-cleavage of 0.48. In the case of A6G C10A U32C G40U, the self-cleavage is reported as 0. Variant A6G C8U U9G A11U U34A has a self-cleavage of 0.01. In the case of A6G C8A C15U U28A G33U G44U, the self-cleavage is reported as 0.66. A6C G17C A24G G35U G44A gave a self-cleavage of 0.02. Work on A6C U9A G36C yielded a self-cleavage of 0.02. A6G C10A G27C G33A showed a self-cleavage of 0.02. A6G A16G G19U G27U C31A C37G gave a self-cleavage of 0.01. A6G C15A U20G U28A G35C G36A showed a self-cleavage of 0.01. Work on A6C G19A G30A G36C G40C yielded a self-cleavage of 0.13. In the case of A6C G21U G36A, the self-cleavage is reported as 0.05. For A6C U9C A16U U32A G44C, the self-cleavage was 0.04. Variant A6C G7A C18A U32C has a self-cleavage of 0.01. Variant A6G C10U G17C U20A C31U A39G has a self-cleavage of 0. A6G C15A C31U U32C U43A showed a self-cleavage of 0.04. A6C C31A A39G showed a self-cleavage of 0.04. With A6G C15A G17A G35C the self-cleavage was 0. In the case of A6G C10U C15A C23U C37U, the self-cleavage is reported as 0.04. A6G A16C C23U showed a self-cleavage of 0.03. Variant A6C G7C C18G has a self-cleavage of 0.05. Work on A6C G7A G19C U34C G40C yielded a self-cleavage of 0.11. In the case of A6G A11C C15U, the self-cleavage is reported as 0.01. Variant A6G C13A G21U C31G G44U has a self-cleavage of 0.03. With A6G C10A G40C C45A the self-cleavage was 0.02. A6C G35C G44U gave a self-cleavage of 0.03. Variant A6G A12U C15G G17U U28A has a self-cleavage of 0.02. In the case of A6G C13U A14G G35C, the self-cleavage is reported as 0.09. For A6C G17U C37U A39C, the self-cleavage was 0.05. With A6G A25C C37A the self-cleavage was 0.02. Work on A6G A11C A14G U34C yielded a self-cleavage of 0.06. Work on A6C U9A U34G U38C G40C yielded a self-cleavage of 0.1. A6G A24U G36U U38C gave a self-cleavage of 0.06. In the case of A6C G7U C15G C37A C45U, the self-cleavage is reported as 0.02. A6G C13U G19A G35U gave a self-cleavage of 0.02. With A6C G19A A24C the self-cleavage was 0.46. With A6G A14G U20G G21C C23A A25G U43A G44U the self-cleavage was 0.02. Variant A6C G19U A25C U34G C37G U38A U43C has a self-cleavage of 0.03. For A6G C13A G27A, the self-cleavage was 0.3. Variant A6G C10U A16G G19C C45A has a self-cleavage of 0.03. Work on A6C G22C A26U G27U G33U A39U C46G yielded a self-cleavage of 0.05. With A6G C8G G17A the self-cleavage was 0.02. With A6C C23G G27A G44C the self-cleavage was 0.25. Work on A6C G7U G29U yielded a self-cleavage of 0.02. In the case of A6G A26C G40C, the self-cleavage is reported as 0.1. A6C C15G A41U gave a self-cleavage of 0.02. For A6G A16G C37U A41G, the self-cleavage was 0.02. A6C G29A U34C G44U showed a self-cleavage of 0.03. Variant A6G A25C G29C has a self-cleavage of 0. For A6G C10G A26C G27U C45A, the self-cleavage was 0.01. Work on A6C C18U G21A A25U G29A yielded a self-cleavage of 1.44. With A6G C15U G17U the self-cleavage was 0.02. A6C G7A U32C showed a self-cleavage of 0.28. Variant A6C U20C G22U G35C has a self-cleavage of 0.03. With A6C G27C G33U C37U U38A A41U C42A the self-cleavage was 0.02. For A6C G17A A39C G40A, the self-cleavage was 0.1. Work on A6G C13A C23G yielded a self-cleavage of 0.06. In the case of A6G C8A C46A, the self-cleavage is reported as 0.03. A6C U20G G30U U32C gave a self-cleavage of 0.04. Variant A6G A26G C46U has a self-cleavage of 0.05. Variant A6C U28A G30U G33A G44A has a self-cleavage of 0.02. A6C U9A U20G gave a self-cleavage of 0.17. A6C C18G G27U showed a self-cleavage of 1.24. In the case of A6C U9G A26U G35U, the self-cleavage is reported as 0.03. For A6C G21U G44C, the self-cleavage was 0.06. A6C G19A G29C G30C gave a self-cleavage of 0.46. A6G A11U G21C U34G gave a self-cleavage of 0. Work on A6G C10A A24U yielded a self-cleavage of 0.03. Work on A6G C8A U32G G35C yielded a self-cleavage of 0.07. With A6C U28C C46U the self-cleavage was 1.11. A6C G17A C18U C31G gave a self-cleavage of 0.02. A6G C15G G29U showed a self-cleavage of 0.01. Variant A6G C13U C45A has a self-cleavage of 0.12. Variant A6G C8U C10A has a self-cleavage of 0.02. With A6G A12U G22U the self-cleavage was 0.07. For A6C G19A C23U, the self-cleavage was 0.85. In the case of A6G A25U G33A, the self-cleavage is reported as 0.03. Variant A6C U34A C45U has a self-cleavage of 0.03. With A6G C15G C42U the self-cleavage was 0.02. Variant A6G A14U C15A G36C has a self-cleavage of 0.05. For A6G A12U C31G, the self-cleavage was 0.01. With A6C G29A C42U the self-cleavage was 0.18. Variant A6C C23A G40C C42U has a self-cleavage of 0.14. With A6G C15U U34C the self-cleavage was 0.02. For A6C G7U U28G, the self-cleavage was 0.04. Variant A6C G35C C45A has a self-cleavage of 0.01. In the case of A6G A41C U43C, the self-cleavage is reported as 0.03. Work on A6G A16C U20A G35U yielded a self-cleavage of 0.02. A6G A16G G30C gave a self-cleavage of 0.05. A6C C18A G22U U32A G40C gave a self-cleavage of 0. Work on A6C C18U A24U C31G C46G yielded a self-cleavage of 0.07. Variant A6G C8A C15G has a self-cleavage of 0.32. In the case of A6G A11G A25G, the self-cleavage is reported as 0.01. A6G C13A G36A A39C showed a self-cleavage of 0.05. Work on A6C U9A C10G C18G yielded a self-cleavage of 0.02. With A6G A16U U34A G40A the self-cleavage was 0.02. With A6G A16U C23U A26G G30U the self-cleavage was 0.01. Work on A6G C15A A16U yielded a self-cleavage of 0.27. With A6G C10U G29A C31U the self-cleavage was 0.01. Work on A6C G7U A16C G22U G30C U32A G44U yielded a self-cleavage of 0.02. In the case of A6G A14G C18A U34C, the self-cleavage is reported as 0.03. Work on A6G C8G C18U C31U C42U yielded a self-cleavage of 0.03. Variant A6C G7C A26U A41G has a self-cleavage of 0.19. Variant A6C G35C G40A has a self-cleavage of 0.08. For A6C G7C C10A U20G C37A, the self-cleavage was 0.01. A6G C10G C13U G17U A25G U32A gave a self-cleavage of 0.01. Work on A6C G7A A24C G40A yielded a self-cleavage of 0.17. A6G C10A G30A U43A showed a self-cleavage of 0.01. Work on A6C C23G C31U G33U U38C A39U yielded a self-cleavage of 0.02. For A6C G17C A24U, the self-cleavage was 0.3. A6C G7U C8A C10G C18A U38A A41C C42G showed a self-cleavage of 0.01. In the case of A6C U20G A25U G29A G30U, the self-cleavage is reported as 0.53. Variant A6G C8A A24U G35C has a self-cleavage of 0.1. Work on A6G C15U G21A yielded a self-cleavage of 0.07. With A6C C23A C31A C37U C45A the self-cleavage was 0.02. A6C G19U G30U gave a self-cleavage of 0.55. In the case of A6G A12C G19A, the self-cleavage is reported as 0. In the case of A6C C18G C31G, the self-cleavage is reported as 0.04. Variant A6C G27U U32A G40U has a self-cleavage of 0. In the case of A6G C13U G27U G30C U34C G44A, the self-cleavage is reported as 0.1. A6G C13A A26C U28A gave a self-cleavage of 0.05. For A6C G22U U32C G33U, the self-cleavage was 0.03. A6C G7A C8A G33A A39G showed a self-cleavage of 0.87. With A6C G17U G44C the self-cleavage was 0.05. With A6G C8U A12G G22C A26U C31A G33C the self-cleavage was 0.01. Work on A6C U20A G21C yielded a self-cleavage of 0.11. For A6G A12U G27C, the self-cleavage was 0.03. Work on A6C C31U G36A G40A yielded a self-cleavage of 0.02. A6G C10U G19A A24G U38A gave a self-cleavage of 0. Work on A6G C15G A24U C37A U43A yielded a self-cleavage of 0.09. With A6C U20A G22A the self-cleavage was 0.12. With A6G C8U U9A C18U C23U C37G G44U the self-cleavage was 0.05. A6C G22U G40C showed a self-cleavage of 0.1. A6G C10G G19C U28G G40A showed a self-cleavage of 0. For A6C G21C G44U, the self-cleavage was 0.12. A6G A16U G27C gave a self-cleavage of 0.02. Work on A6G C8A C15A G40C yielded a self-cleavage of 0.15. With A6G A12U G22U C31A U32A the self-cleavage was 0.02. A6C C18U G22A A26U C31U showed a self-cleavage of 0.02. For A6C C23U G35A, the self-cleavage was 0.14. For A6G C10A G33U, the self-cleavage was 0.01. In the case of A6G A16U C18U, the self-cleavage is reported as 0.06. Variant A6C C15U A16C G19U G44C has a self-cleavage of 0.02. With A6C G7A C18U G30U G40C the self-cleavage was 0.05. A6G A12C U43A gave a self-cleavage of 0.03. With A6G C8U U43G C46A the self-cleavage was 0.05. A6C G21A A39C U43A showed a self-cleavage of 0.02. A6G C10A G21U C23U gave a self-cleavage of 0.04. A6G A26C G27U showed a self-cleavage of 0.04. In the case of A6G C13A A16C G22A A41C, the self-cleavage is reported as 0.08.
